From publication PMC5892938
Some of the results follow. The source does not settle which construct or isoform was used.

target: GST-SBP-ILF3 (Homo sapiens) (UniProt Q12906); experiment: targeted RNA Bind-n-Seq; settings: RBNS binding buffer: 25 mM Tris pH 7.5, 150 mM KCl, 3 mM MgCl2, 0.1% Tween, 0.5 mg/mL BSA, 1 mM DTT; 27 nM protein, 750 pM RNA pool; temperature not stated; high values mean tight binding; sequences stand for … in GGGUAAAAGCGAGGUGAA…CGGGACAAGUAUUAUGGG

Sequence	binding signal (log2 fold change)
UUUUUUUUUUGAGACCGUGUCGGUCUCCUG [tttttgagapaired]	1.12
GGUGGUGGUGUUGGCCUCUAACACCAUCGC [gtspaired]	-0.754
UUUUUUUUUUGAGAUGGUAGCUAUCUCCUA [tttttgagapaired]	0.207
GUGUGUGGUGUUGGCGCCUAACACCACGCA [gtspaired]	-0.205
UUUUUUUUUUGAGAACGAUGCGUUCUCCGG [tttttgagapaired]	0.159
UUUUUUUUUUGAGAGGGGGUCCCUCUCCUA [tttttgagapaired]	0.73
UUUUUUUUUUGAGAUCGAGGCGAUCUCCUG [tttttgagapaired]	0.498
UUUUUUUUUUGAGAUGGACCCCAUCUCCAG [tttttgagapaired]	0.796
UUUUUUUUUUGAGACCGGUCCGGUCUCCAG [tttttgagapaired]	0.487
UUUUUUUUUUGAGACGGAGUCUGUCUCCUG [tttttgagapaired]	0.722
GUUGGUGGUGUUGGCCCCUAACACCGCCAG [gtspaired]	-0.304
GGUGGUUGUGUUGGCUCCUAACACAAUCGC [gtspaired]	-0.624
GGUUGGUGUGUUGGUCCCUAACACACCAGC [gtspaired]	-0.0445
UUUUUUUUUUGAGACUGAGGCAGUUUCCGG [tttttgagapaired]	0.734
GUGUGGUGUGUUGGAUCCUAACACACUACG [gtspaired]	-0.756
UUUUUUUUUUGAGAGCGACACGCUCUUCUA [tttttgagapaired]	0.154
UUUUUUUUUUGAGACUGGCGCAGUCUUCUA [tttttgagapaired]	0.565
UUUUUUUUUUGAGAUGGGGCCCAUCUCCUG [tttttgagapaired]	0.786
UUUUUUUUUUGAGACGGCCGCCGUCUCCUA [tttttgagapaired]	0.918
UUUUUUUUUUGAGAGGGCCGCCCUCUCCAG [tttttgagapaired]	1.11
UUUUUUUUUUGAGAUCGGAACGAUCUCCGG [tttttgagapaired]	0.265
GUGGUGUGUGUUGGACUCUAACACAUACCA [gtspaired]	-0.321
UUUUUUUUUUGAGAUCGGGACGAUCUCCUA [tttttgagapaired]	-0.188
GUGUGGUGUGUUGGUGUCUAACACAUCGCA [gtspaired]	-0.798
UUUUUUUUUUGAGAGCGAUGCGCUCUCCAG [tttttgagapaired]	0.164
GUGUGUGGUGUUGGCAUCUAACACCGCGCA [gtspaired]	-0.74
GGUGGUGGUGUUGGACUCUAACACCAUCGC [gtspaired]	-0.224
GGUGUGUGUGUUGGAUCCUAACACAUAUAC [gtspaired]	-0.668
